Source: the supplement of paper PMC10369915
The other results are listed elsewhere or left out. No stated cut-off is given here; in the data, active = 3.2 or more and inactive = the rest. Only a few entries rise above the background.

Legend:
Assay in all cases: enrichment score (SH2-bound / input frequency) (ratio); bacterial display of known human phosphotyrosine sites (pTyr-Var adds point mutants) read by sequencing; higher = stronger binding; tyrosines were phosphorylated by kinases first
Conditions in all cases: peptide library: pTyr-Var
SHP2 C-SH2 domain E139D = target: SHP2 C-SH2 domain E139D
[1] = target: SHP2 C-SH2 domain wild-type
SHP2 N-SH2 domain L43F = target: SHP2 N-SH2 domain L43F
SHP2 N-SH2 domain T42A = target: SHP2 N-SH2 domain T42A
SHP2 N-SH2 domain T52S = target: SHP2 N-SH2 domain T52S
[2] = target: SHP2 N-SH2 domain wild-type

Measured: enrichment score
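Further: displayed peptides selected on beads carrying the immobilized SH2 domain, with library peptides lacking any tyrosine serving as negative controls.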

QRPFVYFFSFL [PTEN_Y176_R173P_YF]
inactive: SHP2 C-SH2 domain E139D 2.17 | [1] 2.52 | SHP2 N-SH2 domain L43F 1.95 | SHP2 N-SH2 domain T42A 2.41 | SHP2 N-SH2 domain T52S 2.89 | [2] 2.3

RRNVFYFSFLL [PTEN_Y177_Y174N_YF]
inactive: SHP2 C-SH2 domain E139D 0.861 | [1] 0.694 | SHP2 N-SH2 domain L43F 0.825 | SHP2 N-SH2 domain T42A 0.879 | SHP2 N-SH2 domain T52S 0.885 | [2] 0.468

DLDFTYIYPNI [PTEN_Y27_L25F]
inactive: SHP2 C-SH2 domain E139D 1.1 | [1] 1.01 | SHP2 N-SH2 domain L43F 0.825 | SHP2 N-SH2 domain T42A 0.803 | SHP2 N-SH2 domain T52S 1.03 | [2] 1.13

RLEGVYGNNID [PTEN_Y46_R47G]
inactive: SHP2 C-SH2 domain E139D 0.582 | [1] 0.53 | SHP2 N-SH2 domain L43F 0.53 | SHP2 N-SH2 domain T42A 0.645 | SHP2 N-SH2 domain T52S 0.443 | [2] 0.55

NHYKRYNLCAE [PTEN_Y68_I67R]
inactive: SHP2 C-SH2 domain E139D 0.746 | [1] 0.772 | SHP2 N-SH2 domain L43F 0.644 | SHP2 N-SH2 domain T42A 0.76 | SHP2 N-SH2 domain T52S 0.662 | [2] 0.941

NHYKIYNPCAE [PTEN_Y68_L70P]
inactive: SHP2 C-SH2 domain E139D 0.861 | [1] 0.708 | SHP2 N-SH2 domain L43F 0.617 | SHP2 N-SH2 domain T42A 0.64 | SHP2 N-SH2 domain T52S 0.671 | [2] 0.747

NHFKIYNPCAE [PTEN_Y68_L70P_YF]
inactive: SHP2 C-SH2 domain E139D 0.852 | [1] 1.05 | SHP2 N-SH2 domain L43F 0.682 | SHP2 N-SH2 domain T42A 0.668 | SHP2 N-SH2 domain T52S 0.709 | [2] 0.707

SETDDYAEIIV [PTK2_Y397_D402V]
inactive: SHP2 C-SH2 domain E139D 0.534 | [1] 0.61 | SHP2 N-SH2 domain L43F 0.504 | SHP2 N-SH2 domain T42A 0.412 | SHP2 N-SH2 domain T52S 0.578 | [2] 0.586

KNKNRCKNILP [PTPN11_Y279_Y279C]
inactive: SHP2 C-SH2 domain E139D 0.613 | [1] 0.791 | SHP2 N-SH2 domain L43F 0.649 | SHP2 N-SH2 domain T42A 0.474 | SHP2 N-SH2 domain T52S 0.63 | [2] 0.651

EPVSDYINANV [PTPN11_Y304_I309V]
inactive: SHP2 C-SH2 domain E139D 0.643 | [1] 0.842 | SHP2 N-SH2 domain L43F 0.89 | SHP2 N-SH2 domain T42A 0.754 | SHP2 N-SH2 domain T52S 0.785 | [2] 0.874

QTEAQYRFIYM [PTPN11_Y511]
inactive: SHP2 C-SH2 domain E139D 0.661 | [1] 0.65 | SHP2 N-SH2 domain L43F 0.672 | SHP2 N-SH2 domain T42A 0.497 | SHP2 N-SH2 domain T52S 0.412 | [2] 0.637

QFRFIYMAVQH [PTPN11_Y515_YF]
inactive: SHP2 C-SH2 domain E139D 1.69 | [1] 1.78 | SHP2 N-SH2 domain L43F 1.63 | SHP2 N-SH2 domain T42A 1.51 | SHP2 N-SH2 domain T52S 1.57 | [2] 1.63

QNTGDYYDLYG [PTPN11_Y62]
inactive: SHP2 C-SH2 domain E139D 0.53 | [1] 0.993 | SHP2 N-SH2 domain L43F 0.631 | SHP2 N-SH2 domain T42A 0.524 | SHP2 N-SH2 domain T52S 0.635 | [2] 0.784

QNTVDYYDLYG [PTPN11_Y62_G60V]
inactive: SHP2 C-SH2 domain E139D 0.778 | [1] 0.671 | SHP2 N-SH2 domain L43F 1.19 | SHP2 N-SH2 domain T42A 1.07 | SHP2 N-SH2 domain T52S 0.943 | [2] 0.941

QNTGDYCDLYG [PTPN11_Y62_Y63C]
inactive: SHP2 C-SH2 domain E139D 0.745 | [1] 1.1 | SHP2 N-SH2 domain L43F 0.948 | SHP2 N-SH2 domain T42A 0.865 | SHP2 N-SH2 domain T52S 0.952 | [2] 1.17

NTGGFYDLFGG [PTPN11_Y63_D61G_YF]
inactive: SHP2 C-SH2 domain E139D 1.11 | [1] 1.16 | SHP2 N-SH2 domain L43F 1.07 | SHP2 N-SH2 domain T42A 1.08 | SHP2 N-SH2 domain T52S 1.25 | [2] 1.11

NTGVYYDLYGG [PTPN11_Y63_D61V]
inactive: SHP2 C-SH2 domain E139D 1.42 | [1] 1.3 | SHP2 N-SH2 domain L43F 1.12 | SHP2 N-SH2 domain T42A 1.2 | SHP2 N-SH2 domain T52S 1.09 | [2] 1.28

NTADFYDLFGG [PTPN11_Y63_G60A_YF]
inactive: SHP2 C-SH2 domain E139D 1.11 | [1] 1.02 | SHP2 N-SH2 domain L43F 0.964 | SHP2 N-SH2 domain T42A 1.1 | SHP2 N-SH2 domain T52S 1.17 | [2] 1.06

NTVDYYDLYGG [PTPN11_Y63_G60V]
inactive: SHP2 C-SH2 domain E139D 0.987 | [1] 0.778 | SHP2 N-SH2 domain L43F 0.807 | SHP2 N-SH2 domain T42A 0.864 | SHP2 N-SH2 domain T52S 0.86 | [2] 0.947

KTGDYYDLYGG [PTPN11_Y63_N58K]
inactive: SHP2 C-SH2 domain E139D 0.738 | [1] 0.643 | SHP2 N-SH2 domain L43F 0.642 | SHP2 N-SH2 domain T42A 0.797 | SHP2 N-SH2 domain T52S 0.629 | [2] 0.544

NAGDFYDLFGG [PTPN11_Y63_T59A_YF]
inactive: SHP2 C-SH2 domain E139D 0.909 | [1] 1 | SHP2 N-SH2 domain L43F 0.914 | SHP2 N-SH2 domain T42A 0.796 | SHP2 N-SH2 domain T52S 1 | [2] 1.05

NTGDFYDLFGG [PTPN11_Y63_YF]
inactive: SHP2 C-SH2 domain E139D 1.13 | [1] 1.03 | SHP2 N-SH2 domain L43F 1.17 | SHP2 N-SH2 domain T42A 0.963 | SHP2 N-SH2 domain T52S 1.14 | [2] 1.2

NYYDLYGGEKF [PTPN11_Y66_D61N]
inactive: SHP2 C-SH2 domain E139D 1.21 | [1] 0.943 | SHP2 N-SH2 domain L43F 0.861 | SHP2 N-SH2 domain T42A 0.839 | SHP2 N-SH2 domain T52S 0.956 | [2] 0.983

NFFDLYGGEKF [PTPN11_Y66_D61N_YF]
inactive: SHP2 C-SH2 domain E139D 1.34 | [1] 1.58 | SHP2 N-SH2 domain L43F 1.1 | SHP2 N-SH2 domain T42A 1.16 | SHP2 N-SH2 domain T52S 1.25 | [2] 1.44

AELVQYYMEHH [PTPN11_Y80]
inactive: SHP2 C-SH2 domain E139D 1.29 | [1] 1.46 | SHP2 N-SH2 domain L43F 1.33 | SHP2 N-SH2 domain T42A 1.23 | SHP2 N-SH2 domain T52S 1.51 | [2] 1.52

AALVQYFMEHH [PTPN11_Y80_E76A_YF]
inactive: SHP2 C-SH2 domain E139D 2.7 | [1] 2.48 | SHP2 N-SH2 domain L43F 2.63 | SHP2 N-SH2 domain T42A 2.32 | SHP2 N-SH2 domain T52S 2.76 | [2] 2.28

AGLVQYFMEHH [PTPN11_Y80_E76G_YF]
inactive: SHP2 C-SH2 domain E139D 1.92 | [1] 1.78 | SHP2 N-SH2 domain L43F 1.83 | SHP2 N-SH2 domain T42A 1.78 | SHP2 N-SH2 domain T52S 1.68 | [2] 1.63

VKKNRYKDILP [PTPN12_Y64]
inactive: SHP2 C-SH2 domain E139D 0.86 | [1] 0.638 | SHP2 N-SH2 domain L43F 0.483 | SHP2 N-SH2 domain T42A 0.55 | SHP2 N-SH2 domain T52S 0.668 | [2] 0.73

GPQGFYSNKLV [PTPN14_Y506_V505F]
inactive: SHP2 C-SH2 domain E139D 1.2 | [1] 0.95 | SHP2 N-SH2 domain L43F 0.897 | SHP2 N-SH2 domain T42A 0.734 | SHP2 N-SH2 domain T52S 0.913 | [2] 0.927

RGYRVCYTPDS [PTPRF_Y450_Y450C]
inactive: SHP2 C-SH2 domain E139D 0.914 | [1] 0.762 | SHP2 N-SH2 domain L43F 0.7 | SHP2 N-SH2 domain T42A 0.681 | SHP2 N-SH2 domain T52S 0.7 | [2] 1.1

GYRVYYTPDSR [PTPRF_Y451]
inactive: SHP2 C-SH2 domain E139D 1.08 | [1] 1.16 | SHP2 N-SH2 domain L43F 1.24 | SHP2 N-SH2 domain T42A 1.02 | SHP2 N-SH2 domain T52S 0.838 | [2] 1.3

GYRVCYTPDSR [PTPRF_Y451_Y450C]
inactive: SHP2 C-SH2 domain E139D 0.823 | [1] 1.09 | SHP2 N-SH2 domain L43F 0.792 | SHP2 N-SH2 domain T42A 0.852 | SHP2 N-SH2 domain T52S 0.845 | [2] 1.27

AALSAYAAQRP [PTPRN2_Y249]
inactive: SHP2 C-SH2 domain E139D 0.844 | [1] 0.844 | SHP2 N-SH2 domain L43F 0.725 | SHP2 N-SH2 domain T42A 0.672 | SHP2 N-SH2 domain T52S 0.626 | [2] 0.849

RVGVDYEGGGC [PLOD1_Y675]
inactive: [1] 0.993 | SHP2 N-SH2 domain T42A 0.319 | SHP2 N-SH2 domain T52S 1.33

NHFKIYNLFAE [PTEN_Y68_C71Y_YF]
inactive: SHP2 N-SH2 domain L43F 0.852 | SHP2 N-SH2 domain T52S 1.64 | [2] 1.85

TGEDWYVLVGV [SF3B3_Y904]
inactive: [2] 1
